# Experimental data from the supplement of paper PMC8728848.
# The other results are listed elsewhere or left out.
# B1: CVNH0 (Neurospora crassa), Q7S6U4 (protein)
# chain: GSHIGPYMSFHVTAEDARIEVRDNRTILFARLRREDGEWNDASYELDQIIGNNDGHFQWGGQNFTETAEDIRFHPKEGAAEQPILRARLRDCNGEFHDRDVNLTEIVENVNGEFQAKF
# Key:
# Experiment in all cases: glycan array binding signal (z-score within array); higher = stronger binding
# Settings in all cases: glycan notation: IUPAC condensed, linker removed
# [1] = target: Gal(b1-3)[Neu5Ac(a2-6)]GalNAc
# Procedure, shortened: (§1)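 Glycan array data came from 3228 arrays in the Consortium for Functional Glycomics database, and only arrays with an available protein sequence were kept. Glycan names were put into IUPAC-condensed notation, and columns mapping to the same glycan were averaged. The binding signal is a within-array Z-score, averaged across arrays of one protein sequence run at different concentrations or buffers and across linkers. A negative Z-score can be read as non-binding.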
# [2] = target: Gal(b1-3)[Neu5Ac(a2-6)]GlcNAc
# Procedure, shortened: as §1
# [3] = target: Gal(b1-3)[Neu5Ac(a2-6)]GlcNAc(a1-4)Gal(b1-4)Glc
# Procedure, shortened: as §1
# [4] = target: Gal(b1-3)[Neu5Ac(b2-6)]GlcNAc
# Procedure, shortened: as §1
# [5] = target: Gal(b1-4)GalNAc(a1-3)[Fuc(a1-2)]Gal(b1-4)GlcNAc
# Procedure, shortened: as §1
# [6] = target: Gal(b1-4)GalNAc(b1-3)[Fuc(a1-2)]Gal(b1-4)GlcNAc
# Procedure, shortened: as §1
# Gal(b1-4)Glc = target: Gal(b1-4)Glc
# Procedure, shortened: as §1
# Gal(b1-4)Glc6S = target: Gal(b1-4)Glc6S
# Procedure, shortened: as §1
# Gal(b1-4)GlcNAc = target: Gal(b1-4)GlcNAc
# Procedure, shortened: as §1
# [7] = target: Gal(b1-4)GlcNAc(b1-2)Man(a1-3)[Gal(b1-4)GlcNAc(b1-2)Man(a1-6)]Man(b1-4)GlcNAc(b1-4)GlcNAc
# Procedure, shortened: as §1
# [8] = target: Gal(b1-4)GlcNAc(b1-3)Gal(b1-4)Glc
# Procedure, shortened: as §1
# [9] = target: Gal(b1-4)GlcNAc(b1-3)Gal(b1-4)GlcNAc
# Procedure, shortened: as §1
# [10] = target: Gal(b1-4)GlcNAc(b1-3)Gal(b1-4)GlcNAc(b1-3)Gal(b1-4)GlcNAc
# Procedure, shortened: as §1
# [11] = target: Gal(b1-4)GlcNAc(b1-3)Gal(b1-4)[Fuc(a1-3)]GlcNAc(b1-3)Gal(b1-4)[Fuc(a1-3)]GlcNAc
# Procedure, shortened: as §1
# [12] = target: Gal(b1-4)GlcNAc(b1-3)GalNAc
# Procedure, shortened: as §1
# [13] = target: Gal(b1-4)GlcNAc(b1-3)[Gal(b1-4)GlcNAc(b1-6)]GalNAc
# Procedure, shortened: as §1
# [14] = target: Gal(b1-4)GlcNAc(b1-6)GalNAc
# Procedure, shortened: as §1
# [15] = target: Gal(b1-4)GlcNAc(b1-6)[Gal(b1-3)]GalNAc
# Procedure, shortened: as §1
# [16] = target: Gal(b1-4)GlcNAc(b1-6)[Gal(b1-3)]GlcNAc
# Procedure, shortened: as §1
# Gal3S(b1-3)GalNAc = target: Gal3S(b1-3)GalNAc
# Procedure, shortened: as §1
# Gal3S(b1-3)GlcNAc = target: Gal3S(b1-3)GlcNAc
# Procedure, shortened: as §1
# [17] = target: Gal3S(b1-3)[Fuc(a1-4)]GlcNAc
# Procedure, shortened: as §1
# Gal3S(b1-4)Glc = target: Gal3S(b1-4)Glc
# Procedure, shortened: as §1
# Gal3S(b1-4)Glc6S = target: Gal3S(b1-4)Glc6S
# Procedure, shortened: as §1
# Gal3S(b1-4)GlcNAc = target: Gal3S(b1-4)GlcNAc
# Procedure, shortened: as §1
# Gal3S(b1-4)GlcNAc6S = target: Gal3S(b1-4)GlcNAc6S
# Procedure, shortened: as §1
# Gal3S6S(b1-4)GlcNAc = target: Gal3S6S(b1-4)GlcNAc
# Procedure, shortened: as §1
# Gal3S6S(b1-4)GlcNAc6S = target: Gal3S6S(b1-4)GlcNAc6S
# Procedure, shortened: as §1
# Gal4S(b1-4)GlcNAc = target: Gal4S(b1-4)GlcNAc
# Procedure, shortened: as §1
# Gal4S6S(b1-4)GlcNAc = target: Gal4S6S(b1-4)GlcNAc
# Procedure, shortened: as §1
# Gal6S(b1-4)Glc = target: Gal6S(b1-4)Glc
# Procedure, shortened: as §1
# Gal6S(b1-4)Glc6S = target: Gal6S(b1-4)Glc6S
# Procedure, shortened: as §1
# Gal6S(b1-4)GlcNAc = target: Gal6S(b1-4)GlcNAc
# Procedure, shortened: as §1
# GalNAc(a1-3)Gal = target: GalNAc(a1-3)Gal
# Procedure, shortened: as §1
# GalNAc(a1-3)GalNAc = target: GalNAc(a1-3)GalNAc
# Procedure, shortened: as §1
# [18] = target: GalNAc(b1-3)Gal(a1-4)Gal(b1-4)GlcNAc
# Procedure, shortened: as §1
# GalNAc(b1-4)GlcNAc = target: GalNAc(b1-4)GlcNAc
# Procedure, shortened: as §1
# Glc(a1-4)Glc = target: Glc(a1-4)Glc
# Procedure, shortened: as §1
# Glc(a1-6)Glc(a1-6)Glc = target: Glc(a1-6)Glc(a1-6)Glc
# Procedure, shortened: as §1
# Glc(b1-4)Glc = target: Glc(b1-4)Glc
# Procedure, shortened: as §1
# Glc(b1-6)Glc = target: Glc(b1-6)Glc
# Procedure, shortened: as §1
# GlcA(b1-3)Gal = target: GlcA(b1-3)Gal
# Procedure, shortened: as §1
# GlcA(b1-6)Gal = target: GlcA(b1-6)Gal
# Procedure, shortened: as §1
# [19] = target: GlcNAc(a1-3)Gal(b1-4)GlcNAc
# Procedure, shortened: as §1
# [20] = target: GlcNAc(a1-6)Gal(b1-4)GlcNAc
# Procedure, shortened: as §1
# [21] = target: GlcNAc(b1-2)Gal(b1-3)GlcNAc
# Procedure, shortened: as §1
# [22] = target: GlcNAc(b1-2)Man(a1-3)[GlcNAc(b1-2)Man(a1-6)]Man(b1-4)GlcNAc(b1-4)GlcNAc
# Procedure, shortened: as §1
# GlcNAc(b1-3)Gal = target: GlcNAc(b1-3)Gal
# Procedure, shortened: as §1
# [23] = target: GlcNAc(b1-3)Gal(b1-3)GalNAc
# Procedure, shortened: as §1
# GlcNAc(b1-3)Gal(b1-4)Glc = target: GlcNAc(b1-3)Gal(b1-4)Glc
# Procedure, shortened: as §1
# [24] = target: GlcNAc(b1-3)Gal(b1-4)GlcNAc
# Procedure, shortened: as §1
# [25] = target: GlcNAc(b1-3)Gal(b1-4)GlcNAc(b1-3)Gal(b1-4)GlcNAc
# Procedure, shortened: as §1
# GlcNAc(b1-3)GalNAc = target: GlcNAc(b1-3)GalNAc
# Procedure, shortened: as §1
# [26] = target: GlcNAc(b1-3)[GlcNAc(b1-4)][GlcNAc(b1-6)]GlcNAc
# Procedure, shortened: as §1
# [27] = target: GlcNAc(b1-3)[GlcNAc(b1-6)]Gal(b1-4)GlcNAc
# Procedure, shortened: as §1
# [28] = target: GlcNAc(b1-3)[GlcNAc(b1-6)]GlcNAc
# Procedure, shortened: as §1
# [29] = target: GlcNAc(b1-4)Gal(b1-4)GlcNAc
# Procedure, shortened: as §1
# [30] = target: GlcNAc(b1-4)GlcNAc(b1-4)GlcNAc
# Procedure, shortened: as §1
# [31] = target: GlcNAc(b1-4)GlcNAc(b1-4)GlcNAc(b1-4)GlcNAc(b1-4)GlcNAc
# Procedure, shortened: as §1
# [32] = target: GlcNAc(b1-4)GlcNAc(b1-4)GlcNAc(b1-4)GlcNAc(b1-4)GlcNAc(b1-4)GlcNAc
# Procedure, shortened: as §1
binder,measurement,setting,value
B1,glycan array binding signal (z-score),[1],-0.422
same,glycan array binding signal (z-score),[2],-0.448
same,glycan array binding signal (z-score),[3],3.5
same,glycan array binding signal (z-score),[4],-0.429
same,glycan array binding signal (z-score),[5],0.502
same,glycan array binding signal (z-score),[6],-0.431
same,glycan array binding signal (z-score),Gal(b1-4)Glc,-0.185
same,glycan array binding signal (z-score),Gal(b1-4)Glc6S,-0.423
same,glycan array binding signal (z-score),Gal(b1-4)GlcNAc,-0.348
same,glycan array binding signal (z-score),[7],-0.426
same,glycan array binding signal (z-score),[8],1.27
same,glycan array binding signal (z-score),[9],-0.427
same,glycan array binding signal (z-score),[10],-0.432
same,glycan array binding signal (z-score),[11],-0.186
same,glycan array binding signal (z-score),[12],-0.284
same,glycan array binding signal (z-score),[13],0.05
same,glycan array binding signal (z-score),[14],-0.441
same,glycan array binding signal (z-score),[15],-0.375
same,glycan array binding signal (z-score),[16],-0.381
same,glycan array binding signal (z-score),Gal3S(b1-3)GalNAc,-0.424
same,glycan array binding signal (z-score),Gal3S(b1-3)GlcNAc,-0.419
same,glycan array binding signal (z-score),[17],-0.416
same,glycan array binding signal (z-score),Gal3S(b1-4)Glc,-0.23
same,glycan array binding signal (z-score),Gal3S(b1-4)Glc6S,0.76
same,glycan array binding signal (z-score),Gal3S(b1-4)GlcNAc,-0.192
same,glycan array binding signal (z-score),Gal3S(b1-4)GlcNAc6S,-0.421
same,glycan array binding signal (z-score),Gal3S6S(b1-4)GlcNAc,-0.42
same,glycan array binding signal (z-score),Gal3S6S(b1-4)GlcNAc6S,-0.411
same,glycan array binding signal (z-score),Gal4S(b1-4)GlcNAc,-0.403
same,glycan array binding signal (z-score),Gal4S6S(b1-4)GlcNAc,-0.413
same,glycan array binding signal (z-score),Gal6S(b1-4)Glc,-0.372
same,glycan array binding signal (z-score),Gal6S(b1-4)Glc6S,-0.362
same,glycan array binding signal (z-score),Gal6S(b1-4)GlcNAc,-0.425
same,glycan array binding signal (z-score),GalNAc(a1-3)Gal,-0.409
same,glycan array binding signal (z-score),GalNAc(a1-3)GalNAc,-0.394
same,glycan array binding signal (z-score),[18],3.29
same,glycan array binding signal (z-score),GalNAc(b1-4)GlcNAc,-0.412
same,glycan array binding signal (z-score),Glc(a1-4)Glc,-0.391
same,glycan array binding signal (z-score),Glc(a1-6)Glc(a1-6)Glc,2.74
same,glycan array binding signal (z-score),Glc(b1-4)Glc,2.35
same,glycan array binding signal (z-score),Glc(b1-6)Glc,3.13
same,glycan array binding signal (z-score),GlcA(b1-3)Gal,-0.25
same,glycan array binding signal (z-score),GlcA(b1-6)Gal,-0.428
same,glycan array binding signal (z-score),[19],-0.408
same,glycan array binding signal (z-score),[20],-0.422
same,glycan array binding signal (z-score),[21],-0.349
same,glycan array binding signal (z-score),[22],-0.413
same,glycan array binding signal (z-score),GlcNAc(b1-3)Gal,-0.416
same,glycan array binding signal (z-score),[23],-0.4
same,glycan array binding signal (z-score),GlcNAc(b1-3)Gal(b1-4)Glc,-0.428
same,glycan array binding signal (z-score),[24],-0.4
same,glycan array binding signal (z-score),[25],-0.43
same,glycan array binding signal (z-score),GlcNAc(b1-3)GalNAc,-0.424
same,glycan array binding signal (z-score),[26],-0.391
same,glycan array binding signal (z-score),[27],-0.429
same,glycan array binding signal (z-score),[28],-0.428
same,glycan array binding signal (z-score),[29],-0.397
same,glycan array binding signal (z-score),[30],-0.399
same,glycan array binding signal (z-score),[31],-0.374
same,glycan array binding signal (z-score),[32],0.522
